# Laboratory results from the supplement of paper PMC8728848.
# This is one part of the list.
# B1: ABA (Agaricus bisporus), Q00022 (protein)
# chain: MTYTISIRVYQTTPKGFFRPVERTNWKYANGGTWDEVRGEYVLTMGGSGTSGSLRFVSSDTDESFVATFGVHNYKRWCDIVTNLTNEQTALVINQEYYGVPIRDQARENQLTSYNVANAKGRRFAIEYTVTEGDNLKANLIIG
# What was measured:
# Assay in all cases: glycan array binding signal (z-score within array); higher = stronger binding
# Settings in all cases: glycan notation: IUPAC condensed, linker removed
# [1] = molecular target: Gal3S6S(b1-4)GlcNAc
# How it was run: (§1)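 Glycan array data were curated from 3228 arrays in the Consortium for Functional Glycomics database and kept only where the protein sequence was available. Glycan names were converted to IUPAC-condensed notation, and columns mapping to the same glycan were averaged. The binding signal is a within-array Z-score, averaged across arrays of the same protein sequence at different concentrations or buffers and across linkers. Negative Z-scores can be read as non-binding.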
# [2] = molecular target: Gal3S6S(b1-4)GlcNAc6S
# How it was run: as §1
# [3] = molecular target: Gal4S(b1-4)GlcNAc
# How it was run: as §1
# [4] = molecular target: Gal4S6S(b1-4)GlcNAc
# How it was run: as §1
# [5] = molecular target: Gal6P(b1-4)GlcNAc
# How it was run: as §1
# [6] = molecular target: Gal6S(b1-3)GlcNAc
# How it was run: as §1
# [7] = molecular target: Gal6S(b1-3)GlcNAc6S
# How it was run: as §1
# [8] = molecular target: Gal6S(b1-4)Glc
# How it was run: as §1
# [9] = molecular target: Gal6S(b1-4)Glc6S
# How it was run: as §1
# [10] = molecular target: Gal6S(b1-4)GlcNAc
# How it was run: as §1
# [11] = molecular target: Gal6S(b1-4)GlcNAc6S
# How it was run: as §1
# [12] = molecular target: GalNAc(a1-3)Gal
# How it was run: as §1
# [13] = molecular target: GalNAc(a1-3)GalNAc
# How it was run: as §1
# [14] = molecular target: GalNAc(a1-3)GalNAc(b1-3)Gal(a1-4)Gal(b1-4)Glc
# How it was run: as §1
# [15] = molecular target: GalNAc(a1-3)GalNAc(b1-3)Gal(a1-4)Gal(b1-4)GlcNAc
# How it was run: as §1
# [16] = molecular target: GalNAc(b1-3)Gal
# How it was run: as §1
# [17] = molecular target: GalNAc(b1-3)Gal(a1-4)Gal(b1-4)GlcNAc
# How it was run: as §1
# [18] = molecular target: GalNAc(b1-3)Gal(a1-4)Gal(b1-4)GlcNAc(b1-3)Gal(b1-4)Glc
# How it was run: as §1
# [19] = molecular target: GalNAc(b1-3)Gal(a1-6)Gal(b1-4)Glc
# How it was run: as §1
# [20] = molecular target: GalNAc(b1-3)GalNAc
# How it was run: as §1
# [21] = molecular target: GalNAc(b1-3)GlcNAc
# How it was run: as §1
# [22] = molecular target: GalNAc(b1-4)Gal(b1-4)Glc
# How it was run: as §1
# [23] = molecular target: GalNAc(b1-4)GlcNAc
# How it was run: as §1
# [24] = molecular target: GalNAc(b1-4)GlcNAc(b1-2)Man
# How it was run: as §1
# [25] = molecular target: GalNAc(b1-4)GlcNAc(b1-2)Man(a1-3)[GalNAc(b1-4)GlcNAc(b1-2)Man(a1-6)]Man(b1-4)GlcNAc(b1-4)GlcNAc
# How it was run: as §1
# [26] = molecular target: GalNAc(b1-4)GlcNAc(b1-3)GalNAc(b1-4)GlcNAc
# How it was run: as §1
# [27] = molecular target: GalNAc(b1-4)GlcNAc6S
# How it was run: as §1
# [28] = molecular target: GalNAc(b1-6)GalNAc
# How it was run: as §1
# [29] = molecular target: GalNAc3S(b1-4)GlcNAc
# How it was run: as §1
# [30] = molecular target: GalNAc3S(b1-4)GlcNAc3S
# How it was run: as §1
# [31] = molecular target: GalNAc3S(b1-4)[Fuc(a1-3)]GlcNAc
# How it was run: as §1
# [32] = molecular target: GalNAc4S6S(b1-4)GlcNAc
# How it was run: as §1
# [33] = molecular target: GalNAc6S(b1-4)GlcNAc
# How it was run: as §1
# [34] = molecular target: Glc(a1-4)Glc
# How it was run: as §1
# [35] = molecular target: Glc(a1-4)Glc(a1-4)Glc(a1-4)Glc
# How it was run: as §1
# [36] = molecular target: Glc(a1-6)Glc(a1-6)Glc
# How it was run: as §1
# [37] = molecular target: Glc(a1-6)Glc(a1-6)Glc(a1-6)Glc
# How it was run: as §1
# [38] = molecular target: Glc(b1-4)Glc
# How it was run: as §1
# [39] = molecular target: Glc(b1-6)Glc
# How it was run: as §1
# [40] = molecular target: GlcA(b1-3)Gal
# How it was run: as §1
# [41] = molecular target: GlcA(b1-3)GlcNAc
# How it was run: as §1
# [42] = molecular target: GlcA(b1-6)Gal
# How it was run: as §1
# [43] = molecular target: GlcA3S(b1-3)Gal(b1-4)GlcNAc(b1-2)Man
# How it was run: as §1
# [44] = molecular target: GlcA3S(b1-3)Gal(b1-4)GlcNAc(b1-3)Gal(b1-4)Glc
# How it was run: as §1
# [45] = molecular target: GlcNAc(a1-3)Gal(b1-4)GlcNAc
# How it was run: as §1
binder,measurement,setting,value
B1,glycan array binding signal (z-score),[1],-0.211
same,glycan array binding signal (z-score),[2],-0.265
same,glycan array binding signal (z-score),[3],-0.245
same,glycan array binding signal (z-score),[4],-0.187
same,glycan array binding signal (z-score),[5],-0.267
same,glycan array binding signal (z-score),[6],-0.293
same,glycan array binding signal (z-score),[7],-0.294
same,glycan array binding signal (z-score),[8],-0.206
same,glycan array binding signal (z-score),[9],-0.233
same,glycan array binding signal (z-score),[10],-0.249
same,glycan array binding signal (z-score),[11],-0.266
same,glycan array binding signal (z-score),[12],-0.234
same,glycan array binding signal (z-score),[13],-0.247
same,glycan array binding signal (z-score),[14],-0.223
same,glycan array binding signal (z-score),[15],-0.204
same,glycan array binding signal (z-score),[16],-0.222
same,glycan array binding signal (z-score),[17],-0.3
same,glycan array binding signal (z-score),[18],-0.315
same,glycan array binding signal (z-score),[19],-0.15
same,glycan array binding signal (z-score),[20],0.071
same,glycan array binding signal (z-score),[21],-0.262
same,glycan array binding signal (z-score),[22],-0.127
same,glycan array binding signal (z-score),[23],-0.262
same,glycan array binding signal (z-score),[24],-0.265
same,glycan array binding signal (z-score),[25],0.052
same,glycan array binding signal (z-score),[26],-0.29
same,glycan array binding signal (z-score),[27],-0.293
same,glycan array binding signal (z-score),[28],-0.264
same,glycan array binding signal (z-score),[29],-0.26
same,glycan array binding signal (z-score),[30],-0.304
same,glycan array binding signal (z-score),[31],-0.301
same,glycan array binding signal (z-score),[32],-0.244
same,glycan array binding signal (z-score),[33],-0.285
same,glycan array binding signal (z-score),[34],-0.183
same,glycan array binding signal (z-score),[35],-0.134
same,glycan array binding signal (z-score),[36],-0.152
same,glycan array binding signal (z-score),[37],-0.112
same,glycan array binding signal (z-score),[38],-0.178
same,glycan array binding signal (z-score),[39],-0.162
same,glycan array binding signal (z-score),[40],-0.178
same,glycan array binding signal (z-score),[41],-0.26
same,glycan array binding signal (z-score),[42],-0.139
same,glycan array binding signal (z-score),[43],-0.275
same,glycan array binding signal (z-score),[44],-0.242
same,glycan array binding signal (z-score),[45],1.95
